Sequences with one replicate were seen in a single cluster, so their values are uncertain.
tested on: ATP; assay: switch fluorescence ratio, 500 uM ATP over buffer (Cy3 cluster intensity, sum of 5 cycles each) (fold (ratio)); higher = stronger signal-on switching upon ATP binding; sequences stand for … in TCGTCGGCAGCGTCAGATGTGTATAAGAGACAGTTTTTTTTTTTTTTTTTTTTTTTTT…TC; conditions: aptamer strand: ATP DNA aptamer (quencher-CACCTGGGGGAGTATTGCGGAGGAAGG + anchor), 100 nM annealed; ATP concentration: 500 uM; one replicate
Procedure, shortened: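 For every switch-domain sequence, the fluorescence ratio is the mean of per-cluster values, each being summed target-cycle Cy3 intensity over summed buffer-cycle Cy3 intensity. Clusters outside 100-1000 RFU were excluded. On a modified Illumina MiSeq flow-cell, the Cy3-labelled switching-strand clusters were annealed to 100 nM quencher-labelled ATP aptamer, imaged in selection buffer and then after 15 min with 500 uM ATP at 22 °C. Five such cycles were run, with NaOH stripping and re-annealing between them.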
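Further: ATP exposure 15 min at 22 °C before imaging.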

Row | Sequence | switch fluorescence ratio
1 | TTGCTACGTA | 1.12
2 | TTGCTGACTA | 1.01
3 | TTGCTTAATT | 1.07
4 | TTGCTTGG | 1.02
5 | TTGCTTTAAA | 0.951
6 | TTGCTTTACC | 0.99
7 | TTGGAACAGT | 0.993
8 | TTGGAACGG | 0.958
9 | TTGGAAGGAG | 0.984
10 | TTGGACCTCA | 1.12
11 | TTGGAGAGTT | 0.989
12 | TTGGAGGGCC | 1.01
13 | TTGGATGACT | 0.992
14 | TTGGATGCAA | 1.07
15 | TTGGCACGTA | 0.984
16 | TTGGCGCAGG | 1.05
17 | TTGGCGGCCG | 1.04
18 | TTGGCTAGAA | 0.999
19 | TTGGCTGGGT | 0.973
20 | TTGGCTGTCA | 0.981
21 | TTGGCTTCGG | 1
22 | TTGGGAGTCC | 0.965
23 | TTGGGCAAAG | 0.97
24 | TTGGGCCCAT | 1.01
25 | TTGGGCCCGA | 0.962
26 | TTGGGCCTGT | 0.955

Row | Sequence | switch fluorescence ratio
27 | TTGGGCTCGG | 0.99
28 | TTGGGGTACT | 0.987
29 | TTGGGTATTC | 0.995
30 | TTGGTAAACT | 1.25
31 | TTGGTACCTA | 1
32 | TTGGTAGGTT | 0.975
33 | TTGGTATGTT | 1.05
34 | TTGGTCAACG | 1.02
35 | TTGGTCCTGC | 1.02
36 | TTGGTCGACT | 1.02
37 | TTGGTGGCTC | 1.04
38 | TTGGTGGGTC | 1.03
39 | TTGGTGTTCC | 1.07
40 | TTGGTTAAAC | 0.971
41 | TTGGTTCAGT | 0.964
42 | TTGGTTT | 1
43 | TTGTAATCGG | 0.983
44 | TTGTAGGGC | 1
45 | TTGTATACGA | 1.01
46 | TTGTCAAGTT | 0.98
47 | TTGTCGAGAA | 0.988
48 | TTGTCTGCCC | 1
49 | TTGTCTGTGC | 1.05
50 | TTGTCTTACA | 1.01
51 | TTGTGAAGAA | 0.958
52 | TTGTGAGATC | 0.98

Row | Sequence | switch fluorescence ratio
53 | TTGTGAGCTA | 1.02
54 | TTGTGCAAAA | 0.978
55 | TTGTGCCAGA | 0.995
56 | TTGTGCGTCA | 1.03
57 | TTGTGCTGTG | 1.01
58 | TTGTGGCACC | 1.01
59 | TTGTGGCCC | 1.02
60 | TTGTGGCTCG | 1.06
61 | TTGTGGGAG | 1.02
62 | TTGTGGGCCG | 0.981
63 | TTGTGGTATG | 1.04
64 | TTGTGTACGG | 1.06
65 | TTGTGTGCTT | 1.01
66 | TTGTGTGTA | 1.07
67 | TTGTGTGTGC | 1.05
68 | TTGTTCTCTC | 1.01
69 | TTGTTCTTCA | 0.944
70 | TTGTTGAACG | 0.943
71 | TTGTTGGATG | 0.993
72 | TTGTTGGGTA | 1.01
73 | TTGTTTAAAT | 0.999
74 | TTGTTTACAA | 1.06
75 | TTGTTTACGT | 0.976
76 | TTGTTTCTT | 1.04
77 | TTGTTTGAT | 0.946
78 | TTTAAAAGTA | 1.03

Row | Sequence | switch fluorescence ratio
79 | TTTAAACCAC | 1.04
80 | TTTAAACTCA | 1.04
81 | TTTAAATCC | 1.03
82 | TTTAACCCCG | 1.01
83 | TTTAACTGTT | 1.02
84 | TTTAAGACCA | 0.949
85 | TTTAAGCAGT | 1.28
86 | TTTAATATTC | 0.977
87 | TTTAATCTA | 0.983
88 | TTTAATGTCG | 0.919
89 | TTTACAAGTT | 1.01
90 | TTTACACATT | 1.13
91 | TTTACACGCA | 1.14
92 | TTTACAGGAG | 0.999
93 | TTTACATTCT | 1.03
94 | TTTACCAAGA | 1
95 | TTTACCAAGG | 0.994
96 | TTTACCCCTA | 1.1
97 | TTTACCGATG | 1.01
98 | TTTACGAGCT | 1.01
99 | TTTACTCGTA | 0.965
100 | TTTACTGGT | 1.01
101 | TTTAGAAACC | 1.34
102 | TTTAGAGAAA | 0.964
103 | TTTAGATCCT | 1.06
104 | TTTAGGCCGG | 1.01

Row | Sequence | switch fluorescence ratio
105 | TTTAGGGGT | 0.995
106 | TTTAGGTGCT | 1.09
107 | TTTAGTAACA | 1
108 | TTTAGTCGAC | 1.01
109 | TTTAGTGAGA | 1.02
110 | TTTAGTTGTC | 0.923
111 | TTTATAAAGC | 0.941
112 | TTTATAACTA | 0.999
113 | TTTATAAGCG | 1.02
114 | TTTATAATCC | 1.09
115 | TTTATAGAAT | 0.951
116 | TTTATAGAGG | 0.923
117 | TTTATAGGCC | 0.981
118 | TTTATCCACA | 1.06
119 | TTTATGCGTT | 1.09
120 | TTTATTGATA | 1.02
121 | TTTCAAACGC | 1.2
122 | TTTCAAATAA | 0.959
123 | TTTCAACAG | 1
124 | TTTCAAGCGA | 1.09
125 | TTTCAAGGTA | 1.01
126 | TTTCAAGTCC | 0.944
127 | TTTCAATGC | 1.37
128 | TTTCACCCGG | 1.17
129 | TTTCACGAGT | 1.08
130 | TTTCACGTAT | 1.64

Row | Sequence | switch fluorescence ratio
131 | TTTCACTATA | 1.09
132 | TTTCAGAACA | 0.985
133 | TTTCAGAATC | 0.993
134 | TTTCAGATTG | 0.975
135 | TTTCAGCTTC | 1.02
136 | TTTCAGGGAT | 0.985
137 | TTTCATAGCT | 1.03
138 | TTTCATCGGA | 1
139 | TTTCATCTAA | 0.995
140 | TTTCATGTTG | 1.01
141 | TTTCCAGGGT | 1.02
142 | TTTCCCATAC | 1.32
143 | TTTCCCCCAG | 0.984
144 | TTTCCGAGGC | 1.05
145 | TTTCCGGTCA | 0.994
146 | TTTCCGTCTT | 1.01
147 | TTTCGATATA | 1.04
148 | TTTCGATCGT | 1.01
149 | TTTCGATGAT | 1.1
150 | TTTCGCTGG | 1.04
151 | TTTCGGAGAC | 1.03
152 | TTTCGGCAGA | 1.22
153 | TTTCGGGATC | 1.02
154 | TTTCGGTCAG | 0.994
155 | TTTCGTGTTA | 0.978
156 | TTTCTAGCAC | 1.18

Row | Sequence | switch fluorescence ratio
157 | TTTCTCATGT | 0.996
158 | TTTCTCCGGG | 1.08
159 | TTTCTCCTAT | 1.03
160 | TTTCTCTAGG | 1.02
161 | TTTCTGACGA | 2.16
162 | TTTCTGTCGA | 0.997
163 | TTTCTTATGG | 1
164 | TTTCTTGACG | 1.02
165 | TTTCTTTTCG | 1.04
166 | TTTCTTTTGT | 0.946
167 | TTTGAAATCT | 1.06
168 | TTTGAATACT | 1.02
169 | TTTGACAGAC | 1.14
170 | TTTGACCA | 1
171 | TTTGACCCGA | 1.02
172 | TTTGACGCA | 1.65
173 | TTTGACGCT | 1.12
174 | TTTGACTGCA | 1.02
175 | TTTGAGCGTG | 0.949
176 | TTTGAGCT | 1.06
177 | TTTGAGGTTA | 1.05
178 | TTTGATAGGG | 0.942
179 | TTTGATGGCA | 1.1
180 | TTTGATGTG | 1.01
181 | TTTGCAACCT | 1.6
182 | TTTGCAGGCG | 1.07

Row | Sequence | switch fluorescence ratio
183 | TTTGCATCGC | 1.03
184 | TTTGCCAGGT | 1.06
185 | TTTGCCTGTT | 1.11
186 | TTTGCGACT | 0.961
187 | TTTGCGGTTG | 0.983
188 | TTTGCTAAGC | 1.02
189 | TTTGCTCGTC | 1.09
190 | TTTGCTCTAT | 1
191 | TTTGGAAATC | 0.942
192 | TTTGGAACGG | 1.05
193 | TTTGGCGACG | 0.958
194 | TTTGGGTAAC | 1.04
195 | TTTGGTTGTC | 1.02
196 | TTTGGTTTCG | 0.961
197 | TTTGTACAGT | 1.05
198 | TTTGTACTGC | 1.06
199 | TTTGTCTAAC | 0.994
200 | TTTGTGAAGG | 1.02
201 | TTTGTGGCG | 1.13

From the supplement of paper PMC10126150
